From PubChem BioAssay AID686978 (National Center for Advancing Translational Sciences (NCATS), 2013)
Values joined by “and” are separate entries in the source; they are usually repeats but may differ in a detail not shown here. Equal entries are not always repeated. The campaign covered roughly 420,000 compounds. About 64,000 (15%) were called active. Inconclusive results, whose numbers are uncertain, are shown with a selection of clear calls. Calls follow the shape of the dose curve; as a rule, active = well fitted inhibition curve with a large enough effect; inconclusive = small, poorly fitted or top-dose-only effect; inactive = flat fitted curve, though single readings scatter. Potencies beside an inconclusive call are fits to weak or partial responses and may not hold up.
% is scaled to controls: 0 for no effect and ±100 for the full control effect; potency is read from the fitted curve at half-maximal effect; tags tell the direction and shape of the fitted curve.

Experiment: qHTS for Inhibitors of human tyrosyl-DNA phosphodiesterase 1 (TDP1): qHTS in cells in absence of CPT; also: nearly all actives have a fitted effect of over 55% in size
Details: DT40 Tdp1-/- hTDP1 cells, no CPT, ATP luminescence, 48 h; activity change, negative = growth inhibition: at 46.2 µM (top of the series)
How it was run: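 Growth of hTDP1-complemented DT40 Tdp1-knockout cells is measured by ATP luminescence after at least 48 hr compound exposure at 37 °C, with DMSO substituting for the 20 nM CPT used in the parallel screen.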
With COc1cccc(/C=N/Nc2ncnc3c2ncn3Cc2ccccc2)c1O the Potency was active: 4.61 µM. With COc1ccc(/C=N/NC(=O)Nc2ccc3nsnc3c2)c(OC)c1 the “activity change, negative = growth inhibition” value was inactive: 14.1%. In the case of CCS(=O)(=O)c1ncc(Cl)c(C(=O)Nc2ccc(C)cc2)n1, the Potency is reported as active: 1.84 µM. For COc1ccc(C2CC(c3cccs3)=NN2C(=O)CSC2=NCCS2)cc1 (stereo not drawn), the Potency was inconclusive: 29.1 µM [inhibitor, single point]. In the case of COc1cc(OC)c(C(=O)OCC(=O)NCCc2ccccc2)cc1OC, the “activity change, negative = growth inhibition” value is reported as inactive: -24.3%. In the case of Nc1ccc2nc(-c3cccc(-c4nc5ccc(N)cc5[nH]4)n3)[nH]c2c1, the Potency is reported as inconclusive: 16.4 µM [inhibitor, partial curve]. With CCCNC(=O)C1(C)CCCN(C(=O)COCc2ccccc2)C1 (stereo not drawn) the “activity change, negative = growth inhibition” value was inactive: 15.4%. In the case of CN(c1ccccc1)c1ccc(/C=N/NC(=O)CC#N)cc1, the Potency is reported as inconclusive: 14.6 µM [inhibitor, partial curve, poor fit]. In the case of COc1ccc(Cn2c(=O)c3cccnc3n(CC(=O)Nc3ccc(C)c(F)c3)c2=O)cc1, the activity change, negative = growth inhibition is reported as inconclusive: -34.6% [inhibitor]. For COc1cccc(/C=C2\Oc3cc(OCC(=O)N4Cc5ccccc5C[C@H]4C(=O)O)ccc3C2=O)c1, the Potency was inconclusive: 29.1 µM [inhibitor, single point]. In the case of Cc1ccc(-c2cn3nc(-c4ccccc4)c(-c4ccccc4)nc3n2)cc1, the Potency is reported as inconclusive: 18.4 µM [inhibitor, partial curve]. With O=C(Nc1c(C(=O)Nc2ccc(F)cc2)oc2ccccc12)c1cc2ccccc2o1 the Potency was active: 18.4 µM. In the case of CCN(CC)c1ccc(/C=N/NC(=O)CCC(=O)NCc2ccccc2)c(O)c1, the Potency is reported as active: 5.17 µM. With Cn1ccc2cc3c(cc21)CCN3C(=O)Nc1cccnc1 the Potency was “inactive and inconclusive: 11.6 µM [inhibitor, single point]”. With Cc1cccc(-n2c(C)cc(/C=N/NC(=O)c3cccc([N+](=O)[O-])c3C)c2C)c1 the Potency was inconclusive: 20.6 µM [inhibitor, single point]. In the case of Cc1oc(-c2ccccc2NC(=O)c2cccnc2)nc1CNC(=O)c1ccc(N(C)C)cc1, the “activity change, negative = growth inhibition” value is reported as inactive: -15.7%. For CCOC(=O)C1(CCOc2ccccc2)CCN(Cc2cccc(OC)c2)CC1, the Potency was active: 14.6 µM. In the case of CCSc1nnc(NC(=O)c2cc(OC)c(OC)c(OC)c2)s1, the Potency is reported as inconclusive: 25.9 µM [inhibitor, single point]. For Cc1cnc(CNc2ncnc3ccc(-c4ccc5c(c4)OCO5)cc23)cn1, the Potency was inconclusive: 29.1 µM [inhibitor, single point]. In the case of CCOc1cc(/C=N/NC(=O)c2ccccc2-n2cccc2)ccc1O, the Potency is reported as inconclusive: 29.1 µM [inhibitor, single point]. With c1ccc(-c2noc(-c3ccc4c(c3)OCO4)n2)nc1 the Potency was active: 5.17 µM. For Cc1ccc(C)c(CN2CCC(CNC(=O)Nc3ccc(Br)cc3F)CC2)c1, the Potency was inconclusive: 18.4 µM [inhibitor, single point]. In the case of CN1C(=O)c2cccc3c(N(C)C)ccc(c23)C1=O, the Potency is reported as inconclusive: 29.1 µM [inhibitor, single point]. With Cc1ccc(C)n1N1C(=O)/C(=C\c2ccc(Cl)cc2)SC1=S the Potency was inconclusive: 23.1 µM [inhibitor, single point]. In the case of c1ccc2[nH]c(CCCCCc3nc4ccccc4[nH]3)nc2c1, the Potency is reported as inconclusive: 23.1 µM [inhibitor, single point]. For O=C1CCC(C(=O)NCc2cccnc2)N1 (stereo not drawn), the Potency was inconclusive: 29.1 µM [inhibitor, single point]. With Cc1cccc(-n2ccnc2SCC(=O)Nc2ccc(F)cc2F)c1C the Potency was active: 20.6 µM. With CC1CCc2c(sc3c2C2=NS(=O)(=O)CCN2C=N3)C1 (stereo not drawn) the “activity change, negative = growth inhibition” value was inactive: -10.8%. With C=CCNc1sc(C(=O)C(C)(C)C)c(N)c1C#N the “activity change, negative = growth inhibition” value was inactive: -26.5%. For Cc1cc(Oc2c(C(F)(F)F)oc3c(CN4CCC(C)CC4)c(O)ccc3c2=O)cc(C)c1Cl, the “activity change, negative = growth inhibition” value was inactive: -2.05%. In the case of CNc1nc(N(C)C)nc(N(C)C)n1, the Potency is reported as inconclusive: 25.9 µM [inhibitor, partial curve, poor fit]. In the case of Cc1ccc(Nc2nc(C)cs2)cc1, the Potency is reported as inconclusive: 29.1 µM [inhibitor, single point]. For O=C(Nc1ccc(S(=O)(=O)N2CCOCC2)cc1)C1CCN(S(=O)(=O)c2ccc(F)cc2)CC1, the Potency was inconclusive: 16.4 µM [inhibitor, partial curve, poor fit]. For O=C(CC(SCCO)c1ccc2c(c1)OCO2)c1ccco1 (stereo not drawn), the Potency was active: 18.4 µM. In the case of CC1(C)CC(=O)C2=C(C1)OC(N)=C(C#N)C2c1ccoc1 (stereo not drawn), the “activity change, negative = growth inhibition” value is reported as inactive: 13.1%. In the case of CN(C)CCCn1c2c(c(SCC(=O)Nc3cccc4ccccc34)nc1=O)CCCC2, the “activity change, negative = growth inhibition” value is reported as inactive: -16.2%. In the case of CC(SC1=NCCS1)C(=O)Nc1nnc(-c2ccc(Cl)cc2)s1 (stereo not drawn), the Potency is reported as active: 20.6 µM. For COCCNc1nc(-c2ccccc2C)nc2ccccc12, the Potency was active: 18.4 µM. For N#C/C(=C/c1ccc(N2CCCC2)c([N+](=O)[O-])c1)c1nc2ccccc2[nH]1, the Potency was active: 14.6 µM. For Cc1cccc(Nc2nnc(-c3ccc(C(=O)N4C[C@H]5C[C@H](C4)c4cccc(=O)n4C5)cc3)c3ccccc23)c1, the Potency was inconclusive: 29.1 µM [inhibitor, single point]. For Cn1c(=O)c2[nH]c(CCCCCCCCc3nc4ccccc4[nH]3)nc2n(C)c1=O, the Potency was active: 5.17 µM. With CC(C)(C)C(=O)Nc1ccc2oc(-c3cc(F)c(F)cc3Cl)nc2c1 the Potency was inconclusive: 23.1 µM [inhibitor, partial curve, poor fit]. In the case of O=c1oc(-c2ccccc2)nc2ccsc12, the Potency is reported as inconclusive: 0.794 µM [inhibitor, full curve, poor fit]. In the case of O=C(NN1C(=O)c2ccccc2NC1c1ccccn1)c1ccc([N+](=O)[O-])cc1 (stereo not drawn), the “activity change, negative = growth inhibition” value is reported as inactive: -10.7%. In the case of c1ncc(CC2CCNCC2)[nH]1, the Potency is reported as “inactive”. For COC(=O)Cc1ccc(Oc2ncc(C(F)(F)F)cc2Cl)cc1, the “activity change, negative = growth inhibition” value was inactive: -12.9%. With COc1cc(/C=C2\C(=O)N(CCC#N)N=C2C)c(Br)cc1OC(C)C the Potency was inconclusive: 29.1 µM [inhibitor, single point]. For CNc1oc(/C=C/c2cccc(OC)c2)nc1C#N, the Potency was inconclusive: 29.1 µM [inhibitor, single point].
